Screen size: about 310,000 compounds; about 14,000 (4.5%) showed an effect of 50% or more. The effect is printed as a negative number. The list shows a part of the results.
target: human ether-à-go-go-related gene (hERG) potassium channel (human, UniProt Q12809); assay: primary screen, population patch clamp on CHO cells stably expressing hERG
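Note: peak tail current of the secondary pulse compared with the same well before compound.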

Chain of human ether-à-go-go-related gene (hERG) potassium channel (Q12809 whole entry, looked up): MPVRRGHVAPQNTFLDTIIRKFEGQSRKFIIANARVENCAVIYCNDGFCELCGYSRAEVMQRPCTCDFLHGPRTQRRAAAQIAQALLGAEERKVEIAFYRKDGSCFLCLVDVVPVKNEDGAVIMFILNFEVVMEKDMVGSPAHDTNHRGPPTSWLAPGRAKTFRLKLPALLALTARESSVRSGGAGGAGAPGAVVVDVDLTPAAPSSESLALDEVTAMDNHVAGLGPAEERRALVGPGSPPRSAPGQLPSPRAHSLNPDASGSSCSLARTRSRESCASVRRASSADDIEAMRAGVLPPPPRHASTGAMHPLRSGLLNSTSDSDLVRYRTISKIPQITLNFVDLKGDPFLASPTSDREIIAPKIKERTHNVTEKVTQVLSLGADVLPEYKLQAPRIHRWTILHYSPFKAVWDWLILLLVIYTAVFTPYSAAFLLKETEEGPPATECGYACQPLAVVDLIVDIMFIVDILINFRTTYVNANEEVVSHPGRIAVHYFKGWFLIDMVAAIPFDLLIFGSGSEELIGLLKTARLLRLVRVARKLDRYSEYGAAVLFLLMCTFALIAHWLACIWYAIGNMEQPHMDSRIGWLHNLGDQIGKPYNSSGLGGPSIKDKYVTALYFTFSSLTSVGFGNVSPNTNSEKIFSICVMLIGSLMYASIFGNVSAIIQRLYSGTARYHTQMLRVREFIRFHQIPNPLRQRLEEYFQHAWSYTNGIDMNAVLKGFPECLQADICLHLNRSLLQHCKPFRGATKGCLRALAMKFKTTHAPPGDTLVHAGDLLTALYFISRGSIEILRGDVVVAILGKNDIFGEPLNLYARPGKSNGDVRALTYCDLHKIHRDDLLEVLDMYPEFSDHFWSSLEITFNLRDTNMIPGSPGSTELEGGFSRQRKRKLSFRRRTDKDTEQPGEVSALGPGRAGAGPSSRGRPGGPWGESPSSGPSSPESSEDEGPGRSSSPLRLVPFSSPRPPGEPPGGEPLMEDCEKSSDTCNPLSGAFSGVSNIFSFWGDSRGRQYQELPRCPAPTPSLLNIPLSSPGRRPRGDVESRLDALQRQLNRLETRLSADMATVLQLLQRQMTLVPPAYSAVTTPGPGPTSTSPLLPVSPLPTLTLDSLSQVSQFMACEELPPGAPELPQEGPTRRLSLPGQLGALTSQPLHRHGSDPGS

SMILES	hERG current change (%, negative = inhibition) at 10uM [%]
Cc1cccc(NC(=O)CSc2ncnc3nc[nH]c23)c1C	-0.223
CC(=O)NCCn1c(SCc2ccc(C)cc2)nc2ccccc2c1=O	-31.2
Cc1sc2c3ccsc3ccc2[n+]1C.[I-]	32.7
CCc1ccccc1NC(=O)C1c2ccccc2Oc2ccccc21	30.7
Cc1nn(S(=O)(=O)c2cccs2)c(C)c1Sc1ccc([N+](=O)[O-])cc1	-5.62
CC1=C(C(=O)Nc2ccccn2)C(c2ccc(Br)cc2)NC(=S)N1 (centres unmarked)	6.41
COc1cccc(NC(=O)CSc2nnc(Cn3c(=O)sc4ccccc43)n2C)c1	-11.2
NS(=O)(=O)c1ccc(NC(=S)NNC(=O)c2ccc(Br)o2)cc1	18.7
COc1ccc(-c2ccc(S(=O)(=O)N3CCCC3)cc2)cc1	22.3
CC1CCCN(C(=O)COC(=O)CNC(=O)c2ccc(Br)cc2)C1 (centres unmarked)	-8.3
CC(=O)O/N=C(/c1nonc1N)N(C)C	12.4
COC(=O)Nc1ccc(OCC(=O)N2CCOCC2)cc1	-5.16
Cc1ccc(N=Cc2c(O)n(-c3ccc(C)cc3)c(=O)[nH]c2=O)cc1	9.48
CN1C2CCC1CC(NS(=O)(=O)c1ccc(C#N)cc1)C2 (centres unmarked)	4.16
O=C(CN1CCN(C(=S)NC2CCCC2)CC1)Nc1ccc(Oc2ccccc2)cc1	-25
O=C1CC(c2cccc(Br)c2)C2=C(CCCC2=O)N1 (centres unmarked)	2.43
CCCCN(C(=O)c1ccc(N(C)S(=O)(=O)c2ccc(C)cc2)cc1)c1c(N)n(CCC)c(=O)[nH]c1=O	16.2
CC(CCc1ccccc1)NCC(O)c1ccc(O)c(C(N)=O)c1.Cl (centres unmarked)	-30.6
Nc1ccc(C(=O)OCC(=O)N2CCc3ccccc3C2)cc1[N+](=O)[O-]	-21.1
CN1CCN(c2ccccc2NC(=O)COc2ccc(Br)cc2)CC1	-58
CCn1c(SCC(=O)Nc2oc(-c3ccccc3)c(-c3ccccc3)c2C#N)nnc1-c1ccco1	-30.8
CCOC(=O)C1=C(C)NC(=O)NC1/C(C)=C/c1ccccc1 (centres unmarked)	-5.3
Cc1ccc(O)c(NC(=S)NC(=O)CC(C)C)c1	1.63

SMILES	hERG current change (%, negative = inhibition) at 10uM [%]
Cc1cccc(-c2nc3c(c(SCC(=O)N4CCCC4)n2)COC(C)(C)C3)c1	-2.05
O=C(c1ccc(COc2ccc(Cl)cc2Cl)o1)N1CCCC1	-43.1
Cc1occc1C(=O)N1CCN(C(=O)C2CCCO2)CC1 (centres unmarked)	-12.2
COc1ccc(-c2ccc(/C=C3/C(=N)N4C=CSC4=NC3=O)o2)c([N+](=O)[O-])c1	-9.17
CC(c1ccccc1)C1CC(=O)N(c2ccc(C(=O)O)cc2)C1=O (centres unmarked)	15.2
CCn1cc(C(=O)N2CCN(c3ccccc3)CC2)c(=O)c2cc(S(=O)(=O)N3CCOCC3)ccc21	23
COC(=O)CCNS(=O)(=O)c1ccc2nsnc2c1	8.7
CC(C)c1ccccc1NC(=O)COC(=O)COc1ccccc1[N+](=O)[O-]	28.5
CC(C)CC(c1nnnn1C1CCCC1)N1CCN(C(=O)c2ccco2)CC1.Cl (centres unmarked)	-33.9
CCN(C(=O)c1ccc2c(SCC(=O)O)c3c(nc2c1)CCC3)c1cc(Cl)ccc1OC	20.8
CCc1ccccc1NCc1cc(=O)oc2cc(C)ccc12	26.9
Cc1nc(SCC(=O)NNC(=O)c2cccs2)[nH]c(=O)c1C	16.9
O=C(COC(=O)c1cccc(Br)c1)NCCC1=CCCCC1	16.6
CNc1ccc(Cl)cc1C(N)=O	26.1
CC(=O)c1ccc(NC(=O)c2cc(C)nc3ccccc23)cc1	16.5
COc1ccc(NC(=O)c2ccccc2NC(=O)CSc2ccc(Cl)cc2)cc1	3.21
COC(=O)c1nnn(-c2ccsc2C(=O)OC)c1C(=O)OC	9.52
Cc1ccc(/C=C/c2nc3sc(C(=O)O)c(C)c3c(=O)[nH]2)cc1[N+](=O)[O-]	19
COc1ccc(C(=O)CC(=O)C(=O)Nc2cc(OC)ccc2OC)cc1	2.5
COc1cc2nc(SCc3ccc(F)cc3)n(Cc3cccs3)c(=N)c2cc1OC	0.564
Cc1nc(SCc2ccc(F)cc2)c2oc3ccccc3c2n1	2.68
CC(=O)Nc1ccc(NC(=O)C(OC(=O)c2ccccc2)C(OC(=O)c2ccccc2)C(=O)O)cc1 (centres unmarked)	4.27
O=C(NCCc1ccc2c(c1)OCCO2)c1ccccn1	9.78

SMILES	hERG current change (%, negative = inhibition) at 10uM [%]
O=C(Nc1ccc(Cc2ccncc2)cc1)c1cccc([N+](=O)[O-])c1	13.6
CCOC(=O)CCCN1CC(O)=C(c2nc3ccccc3s2)C1=N	-7.37
COc1ccccc1-c1sc2ccccc2c1-c1ccc2c(c1)OCO2	4.64
Cc1cccc(C)c1NC(=S)NCCc1ccccn1	6.34
O=C(NNc1cc(Cl)ccc1Cl)c1cccnc1Cl	22.9
CC(=O)c1cccc(NC(=O)C(C)OC(=O)c2cccc(S(=O)(=O)N3CCN(C)CC3)c2)c1 (centres unmarked)	-21.5
COc1ccccc1NC(=O)C1=C(C)Nc2nc(-c3cccs3)nn2C1c1cccnc1 (centres unmarked)	-6.58
S=C(NCc1ccccc1)Nc1ccncc1	-4.59
CCN(c1ccc(OC)cc1)S(=O)(=O)c1ccc2c(c1)CCN2C(=O)CCC(=O)O	3.55
COc1cc(OC)nc(NC(=O)CN2CCN(c3ccc(F)cc3)CC2)n1	-20.1
Cl.Cn1sccc1=O	19.2
CCCCCc1nnc(NC(=O)OCCC)s1	-26
COc1ccc2c(c1)c(C(=O)N/N=C/c1ccc(OC)c(OC)c1)c(C)n2C	-39.2
Cc1nnc(NC(=O)CSc2ncn(-c3ccccc3)n2)s1	-3.65
Cc1cc(C)cc(NC(=O)C(NCC2CCCO2)c2ccccc2)c1.O=C(O)C(=O)O (centres unmarked)	-35.5
COc1ccc2[nH]c(=O)c(CNc3ccccc3C)cc2c1	-0.585
COc1ccc(/C=C/c2onc(C)c2S(=O)(=O)N2CCC(C(=O)N3CCCCCC3)CC2)cc1	2.32
CCOC(=O)c1c(C)[nH]c(C(=O)OCc2ccc([N+](=O)[O-])cc2)c1C	13.4
CCCCN(CCCNC(=O)c1c(C)cc(=O)oc1C)c1ccccc1	-64.4
Cc1cc(N/C=C(\C#N)S(=O)(=O)c2ccc(Cl)cc2)nc(C)n1	-25.3
CCCC(C)C(=O)Nc1nnc(C)s1 (centres unmarked)	-2.87
CCN(CC)S(=O)(=O)c1ccc(N2CCOCC2)c(NS(=O)(=O)c2cccs2)c1	-15.3
CC(=O)N(c1cccc(Br)c1)C1C=CS(=O)(=O)C1 (centres unmarked)	0.97

SMILES	hERG current change (%, negative = inhibition) at 10uM [%]
CCOc1ccccc1C(=O)Nc1ccccc1C(N)=O	-1.33
CCC(=O)NCCNc1nc2cc(C)c(C)cc2cc1C#N	3.21
Cc1onc(NC(=O)NC(=O)c2c(F)cccc2Cl)c1Br	2.3
CCOC(=O)C(C)Oc1ccsc1C(=O)OC (centres unmarked)	2.46
COc1cccc(C(=O)NCC(=O)NNc2ncnc(N)c2[N+](=O)[O-])c1	15.3
CCOC(=O)c1sc2ncn(CC(=O)Nc3cc(C)on3)c(=O)c2c1C	14.4
CN(C)CCCN(Cc1ccc2c(c1)OCO2)C(=O)NC1CCCCC1	-32.7
COC(=O)c1cccc(-n2c(C)cc(C=O)c2C)c1	-0.631
Cc1cc(Nc2c(C)n(C)n(-c3ccccc3)c2=O)c2ccccc2n1	-20.3
CNC(C(=O)c1ccccc1)C(OC)c1cccc([N+](=O)[O-])c1.[O-][Cl+3]([O-])([O-])O (centres unmarked)	5.26
CN1/C(=C\C(=O)c2cccnc2)C(C)(C)c2ccccc21	-21.5
COC(=O)c1ccc(/C=N/NC(=O)CC(=O)NCC(C)C)cc1	20.5
CCOC(=O)C1CCN(C/C=C/c2ccccc2)CC1	-28.2
Cc1ccc(C)c(S(=O)(=O)Nc2cc3c4c(c2)CCC(=O)N4CCC3)c1	7.7
COC(=O)C1=C(c2ccc(-c3ccccc3)c(F)c2)C[C@@H]2CC[C@H]1N2C(=O)NCc1ccc(F)cc1	19.8
COc1cc2c(cc1NC(=O)C(C)N1CCN(S(=O)(=O)c3ccc(C)c(C)c3)CC1)oc1ccccc12 (centres unmarked)	26.7
Cc1ccc(C2C(C#N)=C(N)Oc3cc4c(cc32)OCO4)cc1 (centres unmarked)	9.19
CCCCOc1ccc(Cl)cc1Nc1nc(NCCO)nc(N2CCCC2)n1	12.2
CCCC(=O)NC(=S)Nc1ccccc1OC	6.4
O=C1/C(=C/c2ccccn2)SC(=S)N1NS(=O)(=O)c1ccccc1	14.9
